Measurements from patent US20210238308A1 (Chugai, published 2021).

T1: mouse TRIM21 PRYSPRY domain with N-terminal 6xHis tag (mouse)
T1 construct: Expressed from pET28a in E. coli; also called mTRIM21
T1 chain: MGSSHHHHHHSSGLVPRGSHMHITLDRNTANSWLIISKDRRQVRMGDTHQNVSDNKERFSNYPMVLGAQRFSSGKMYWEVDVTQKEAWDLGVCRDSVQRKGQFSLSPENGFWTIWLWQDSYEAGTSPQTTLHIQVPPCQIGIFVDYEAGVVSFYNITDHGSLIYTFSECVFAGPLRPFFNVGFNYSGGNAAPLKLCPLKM

T2: human TRIM21 PRYSPRY domain with N-terminal 6xHis tag (human)
T2 construct: Expressed from pET28a in E. coli; also called hTRIM21
T2 chain: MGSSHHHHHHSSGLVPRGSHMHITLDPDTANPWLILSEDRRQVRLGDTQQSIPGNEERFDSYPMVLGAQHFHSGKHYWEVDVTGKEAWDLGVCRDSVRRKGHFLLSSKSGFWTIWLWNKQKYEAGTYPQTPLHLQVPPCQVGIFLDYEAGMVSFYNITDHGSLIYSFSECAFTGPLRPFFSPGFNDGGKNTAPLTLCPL

B1: MRAH-G1d/MRAL-KT0 S440F (antibody)
heavy: QVQLQESGPGLVRPSQTLSLTCTVSGYSITSDHAWSWVRQPPGRGLEWIGYISYSGITTYNPSLKSRVTMLRDTSKNQFSLRLSSVTAADTAVYYCARSLARTTAMDYWGQGSLVTVSS[human IgG1 constant region with S440F (EU numbers) omitted here]
light: DIQMTQSPSSLSASVGDRVTITCRASQDISSYLNWYQQKPGKAPKLLIYYTSRLHSGVPSRFSGSGSGTDFTFTISSLQPEDIATYYCQQGNTLPYTFGQGTKVEIKRTVAAPSVFIFPPSDEQLKSGTASVVCLLNNFYPREAKVQWKVDNALQSGNSQESVTEQDSKDSTYSLSSTLTLSKADYEKHKVYACEVTHQGLSSPVTKSFNRGEC
B2: MRAH-G1d/MRAL-KT0 T437S (antibody, human IgG1, kappa)
heavy: QVQLQESGPGLVRPSQTLSLTCTVSGYSITSDHAWSWVRQPPGRGLEWIGYISYSGITTYNPSLKSRVTMLRDTSKNQFSLRLSSVTAADTAVYYCARSLARTTAMDYWGQGSLVTVSS[human IgG1 constant region with T437S (EU numbers) omitted here]
light: B1 light
B3: MRAH-G1d/MRAL-KT0 S440K (antibody)
heavy: QVQLQESGPGLVRPSQTLSLTCTVSGYSITSDHAWSWVRQPPGRGLEWIGYISYSGITTYNPSLKSRVTMLRDTSKNQFSLRLSSVTAADTAVYYCARSLARTTAMDYWGQGSLVTVSS[human IgG1 constant region with S440K (EU numbers) omitted here]
light: B1 light
B4: MRAH-G1d/MRAL-KT0 T437K (antibody, human IgG1, kappa)
heavy: QVQLQESGPGLVRPSQTLSLTCTVSGYSITSDHAWSWVRQPPGRGLEWIGYISYSGITTYNPSLKSRVTMLRDTSKNQFSLRLSSVTAADTAVYYCARSLARTTAMDYWGQGSLVTVSS[human IgG1 constant region with T437K (EU numbers) omitted here]
light: B1 light
B5: MRAH-G1d/MRAL-KT0 S440T (antibody)
heavy: QVQLQESGPGLVRPSQTLSLTCTVSGYSITSDHAWSWVRQPPGRGLEWIGYISYSGITTYNPSLKSRVTMLRDTSKNQFSLRLSSVTAADTAVYYCARSLARTTAMDYWGQGSLVTVSS[human IgG1 constant region with S440T (EU numbers) omitted here]
light: B1 light
B6: MRAH-G1d/MRAL-KT0 S440L (antibody)
heavy: QVQLQESGPGLVRPSQTLSLTCTVSGYSITSDHAWSWVRQPPGRGLEWIGYISYSGITTYNPSLKSRVTMLRDTSKNQFSLRLSSVTAADTAVYYCARSLARTTAMDYWGQGSLVTVSS[human IgG1 constant region with S440L (EU numbers) omitted here]
light: B1 light
B7: MRAH-G1d/MRAL-KT0 S440R (antibody)
heavy: QVQLQESGPGLVRPSQTLSLTCTVSGYSITSDHAWSWVRQPPGRGLEWIGYISYSGITTYNPSLKSRVTMLRDTSKNQFSLRLSSVTAADTAVYYCARSLARTTAMDYWGQGSLVTVSS[human IgG1 constant region with S440R (EU numbers) omitted here]
light: B1 light
B8: MRAH-G1d/MRAL-KT0 T437Y (antibody, human IgG1, kappa)
heavy: QVQLQESGPGLVRPSQTLSLTCTVSGYSITSDHAWSWVRQPPGRGLEWIGYISYSGITTYNPSLKSRVTMLRDTSKNQFSLRLSSVTAADTAVYYCARSLARTTAMDYWGQGSLVTVSS[human IgG1 constant region with T437Y (EU numbers) omitted here]
light: B1 light
B9: MRAH-G1d/MRAL-KT0 S440P (antibody)
heavy: QVQLQESGPGLVRPSQTLSLTCTVSGYSITSDHAWSWVRQPPGRGLEWIGYISYSGITTYNPSLKSRVTMLRDTSKNQFSLRLSSVTAADTAVYYCARSLARTTAMDYWGQGSLVTVSS[human IgG1 constant region with S440P (EU numbers) omitted here]
light: B1 light
B10: MRAH-G1d/MRAL-KT0 T437H (antibody, human IgG1, kappa)
heavy: QVQLQESGPGLVRPSQTLSLTCTVSGYSITSDHAWSWVRQPPGRGLEWIGYISYSGITTYNPSLKSRVTMLRDTSKNQFSLRLSSVTAADTAVYYCARSLARTTAMDYWGQGSLVTVSS[human IgG1 constant region with T437H (EU numbers) omitted here]
light: B1 light
B11: MRAH-G1d/MRAL-KT0 S440M (antibody)
heavy: QVQLQESGPGLVRPSQTLSLTCTVSGYSITSDHAWSWVRQPPGRGLEWIGYISYSGITTYNPSLKSRVTMLRDTSKNQFSLRLSSVTAADTAVYYCARSLARTTAMDYWGQGSLVTVSS[human IgG1 constant region with S440M (EU numbers) omitted here]
light: B1 light
B12: MRAH-G1d/MRAL-KT0 T437F (antibody, human IgG1, kappa)
heavy: QVQLQESGPGLVRPSQTLSLTCTVSGYSITSDHAWSWVRQPPGRGLEWIGYISYSGITTYNPSLKSRVTMLRDTSKNQFSLRLSSVTAADTAVYYCARSLARTTAMDYWGQGSLVTVSS[human IgG1 constant region with T437F (EU numbers) omitted here]
light: B1 light
B13: MRAH-G1d/MRAL-KT0 T437Q (antibody, human IgG1, kappa)
heavy: QVQLQESGPGLVRPSQTLSLTCTVSGYSITSDHAWSWVRQPPGRGLEWIGYISYSGITTYNPSLKSRVTMLRDTSKNQFSLRLSSVTAADTAVYYCARSLARTTAMDYWGQGSLVTVSS[human IgG1 constant region with T437Q (EU numbers) omitted here]
light: B1 light
B14: MRAH-G1d/MRAL-KT0 S440W (antibody)
heavy: QVQLQESGPGLVRPSQTLSLTCTVSGYSITSDHAWSWVRQPPGRGLEWIGYISYSGITTYNPSLKSRVTMLRDTSKNQFSLRLSSVTAADTAVYYCARSLARTTAMDYWGQGSLVTVSS[human IgG1 constant region with S440W (EU numbers) omitted here]
light: B1 light
B15: MRAH-G1d/MRAL-KT0 T437R (antibody, human IgG1, kappa)
heavy: QVQLQESGPGLVRPSQTLSLTCTVSGYSITSDHAWSWVRQPPGRGLEWIGYISYSGITTYNPSLKSRVTMLRDTSKNQFSLRLSSVTAADTAVYYCARSLARTTAMDYWGQGSLVTVSS[human IgG1 constant region with T437R (EU numbers) omitted here]
light: B1 light
B16: MRAH-G1d/MRAL-KT0 S440H (antibody)
heavy: QVQLQESGPGLVRPSQTLSLTCTVSGYSITSDHAWSWVRQPPGRGLEWIGYISYSGITTYNPSLKSRVTMLRDTSKNQFSLRLSSVTAADTAVYYCARSLARTTAMDYWGQGSLVTVSS[human IgG1 constant region with S440H (EU numbers) omitted here]
light: B1 light
B17: MRAH-G1d/MRAL-KT0 T437L (antibody, human IgG1, kappa)
heavy: QVQLQESGPGLVRPSQTLSLTCTVSGYSITSDHAWSWVRQPPGRGLEWIGYISYSGITTYNPSLKSRVTMLRDTSKNQFSLRLSSVTAADTAVYYCARSLARTTAMDYWGQGSLVTVSS[human IgG1 constant region with T437L (EU numbers) omitted here]
light: B1 light
B18: MRAH-G1d/MRAL-KT0 S440V (antibody)
heavy: QVQLQESGPGLVRPSQTLSLTCTVSGYSITSDHAWSWVRQPPGRGLEWIGYISYSGITTYNPSLKSRVTMLRDTSKNQFSLRLSSVTAADTAVYYCARSLARTTAMDYWGQGSLVTVSS[human IgG1 constant region with S440V (EU numbers) omitted here]
light: B1 light

The binders below were run against T3, human FcRn (human, UniProt P55899 fragment; P61769 fragment, limits assumed) (assay: SPR pH 6.0, Ab captured on Protein L, 1 uM hFcRn).
T3 construct: also called hFcRn

| hFcRn binding level ratio (variant/control antibody) | Binder |
| --- | --- |
| 0.94 | B1 |
| 0.97 | B2 |
| 0.95 | B3 |
| 0.96 | B4 |
| 0.92 | B5 |
| 0.93 | B6 |
| 0.95 | B7 |
| 0.84 | B8 |
| 0.95 | B9 |
| 0.93 | B10 |
| 0.97 | B11 |
| 0.84 | B12 |
| 0.98 | B13 |
| 0.93 | B14 |
| 0.94 | B15 |
| 0.96 | B16 |
| 0.86 | B17 |
| 0.92 | B18 |

Molecular target: T1, mouse TRIM21 PRYSPRY domain with …
Assay: SPR, Ab captured on Protein L, 100 nM mTRIM21

| mTRIM21 binding level ratio (variant/control antibody) | Binder |
| --- | --- |
| 2.62 | B1 |
| 2.52 | B2 |
| 2.8 | B3 |
| 2.18 | B4 |
| 2.45 | B5 |
| 2.27 | B6 |
| 2.65 | B7 |
| 2.27 | B8 |
| 2.18 | B9 |
| 2.18 | B10 |
| 2.55 | B11 |
| 2.18 | B12 |
| 2.16 | B13 |
| 2.66 | B14 |
| 2.25 | B15 |
| 2.3 | B16 |
| 2.15 | B17 |
| 2.21 | B18 |

Molecular target: T2, human TRIM21 PRYSPRY domain with …
Assay: SPR, Ab captured on Protein L, 100 nM hTRIM21

| hTRIM21 binding level ratio (variant/control antibody) | Binder |
| --- | --- |
| 1.04 | B1 |
| 0.852 | B2 |
| 0.528 | B3 |
| 0.11 | B4 |
| 0.98 | B5 |
| 0.96 | B6 |
| 0.602 | B7 |
| 0.746 | B8 |
| 0.905 | B9 |
| 0.655 | B10 |
| 0.999 | B11 |
| 0.728 | B12 |
| 0.634 | B13 |
| 1.11 | B14 |
| 0.068 | B15 |
| 0.755 | B16 |
| 0.233 | B17 |
| 0.908 | B18 |
